From article PMC4336329 (PLoS ONE, 2015)
The whole screen tested about 310,000 compounds, of which about 2,200 (0.71%) showed an effect of 50% or more. Effects have a minus sign here. The list shows a part of the results.

biological target: human ether-à-go-go-related gene (hERG) potassium channel (human, UniProt Q12809); assay: primary screen, population patch clamp on CHO cells stably expressing hERG
Sequence (Q12809 whole entry, looked up): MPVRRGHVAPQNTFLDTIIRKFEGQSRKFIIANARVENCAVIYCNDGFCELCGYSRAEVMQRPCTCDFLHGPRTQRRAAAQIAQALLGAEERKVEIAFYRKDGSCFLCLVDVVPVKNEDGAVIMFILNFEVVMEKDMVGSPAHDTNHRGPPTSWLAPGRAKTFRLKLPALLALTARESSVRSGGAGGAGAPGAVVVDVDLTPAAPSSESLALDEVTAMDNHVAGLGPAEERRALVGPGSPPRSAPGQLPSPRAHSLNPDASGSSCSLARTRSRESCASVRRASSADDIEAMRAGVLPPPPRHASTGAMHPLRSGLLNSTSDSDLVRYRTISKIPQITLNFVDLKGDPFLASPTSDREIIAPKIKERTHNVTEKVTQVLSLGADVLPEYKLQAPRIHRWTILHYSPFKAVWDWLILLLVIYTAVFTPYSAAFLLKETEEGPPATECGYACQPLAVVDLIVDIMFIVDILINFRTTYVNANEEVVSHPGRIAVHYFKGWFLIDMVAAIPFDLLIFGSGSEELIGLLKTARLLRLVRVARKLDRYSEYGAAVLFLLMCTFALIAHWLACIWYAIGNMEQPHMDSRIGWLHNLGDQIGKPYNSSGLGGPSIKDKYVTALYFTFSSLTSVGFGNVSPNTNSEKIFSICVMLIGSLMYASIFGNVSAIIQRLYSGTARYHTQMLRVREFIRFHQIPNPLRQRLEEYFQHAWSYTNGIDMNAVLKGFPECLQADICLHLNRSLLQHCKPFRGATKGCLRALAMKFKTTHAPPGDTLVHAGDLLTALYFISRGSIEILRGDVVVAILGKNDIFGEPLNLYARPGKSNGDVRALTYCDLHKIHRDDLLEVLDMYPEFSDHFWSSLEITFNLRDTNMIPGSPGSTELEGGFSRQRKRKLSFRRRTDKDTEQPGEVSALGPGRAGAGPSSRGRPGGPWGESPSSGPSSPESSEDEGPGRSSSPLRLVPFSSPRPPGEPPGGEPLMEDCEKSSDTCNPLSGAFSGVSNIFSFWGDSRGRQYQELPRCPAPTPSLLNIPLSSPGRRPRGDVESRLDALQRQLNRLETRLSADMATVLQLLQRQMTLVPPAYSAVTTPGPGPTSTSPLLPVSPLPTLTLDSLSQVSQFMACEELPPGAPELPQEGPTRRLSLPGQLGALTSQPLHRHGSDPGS

SMILES | hERG current change (%, negative = inhibition) at 1uM [%]
Cc1ccc(S(=O)(=O)N(C)c2ccc(C(=O)O)cc2)cc1 | 6.35
O=C(CSc1ccc(-c2ccco2)nn1)NCc1ccccc1Cl | -8.19
CCOC(=O)CNc1c(N2CCN(c3ccccn3)CC2)c(=O)c1=O | 14.6
O=C1CC(N2CCN(c3ccccn3)CC2)C(=O)N1c1ccc(F)cc1 (stereo not shown) | 11.9
O=C(Cn1cccc1)N1CCN(C(c2ccccc2)c2ccccc2)CC1 | -2.27
O=C1N=C(N2CCN(Cc3ccccc3)CC2)S/C1=C/c1cccs1 | 7.28
CCc1ccc(CNCCc2c[nH]c3ccccc23)cc1.O=C(O)C(=O)O | -9.05
O=C(O)CSc1nnc(CNc2ccccc2Cl)n1-c1ccccc1 | -17.9
CC(C)[C@H](NC(=O)c1ccccc1Cl)C(=O)Nc1nc(-c2ccccn2)cs1 | 5.38
COc1ccc(CCNC(=O)C2CC(=O)N(c3ccccc3)C2)cc1OC (stereo not shown) | -0.694
O=C(N/C(=C\c1cccc([N+](=O)[O-])c1)C(=O)N1CCOCC1)c1ccc([N+](=O)[O-])cc1 | -2.31
CCn1c(C)c(C(C)=O)c(N2CCN(c3ccccc3)CC2)nc1=S | -2.66
Cc1ccc(S(=O)(=O)Cc2ccc(C(=O)N3CCN(Cc4ccccc4)CC3)o2)cc1 | 2.95
COc1ccc(Cl)cc1NC(=O)C1CC(=O)N(C2CCCCC2)C1 (stereo not shown) | 3.63
COc1ccc2c(c1)c(C(=O)N/N=C/c1ccc(Br)cc1)c(C)n2C | 5.63
O=C(C1CCCN(Cc2ccccc2Cl)C1)N1CCCCC1.O=C(O)C(=O)O (stereo not shown) | 2.88
O=C1c2ccc(Cl)cc2S(=O)(=O)c2cccc(C(=O)N3CCC(Cc4ccccc4)CC3)c21 | 16.1
Cc1noc(/C=C/N(C)C)c1S(=O)(=O)N1CCN(c2ccccc2)CC1 | 5.41
Cc1ccc(OCC(=O)N/N=C/c2ccc([N+](=O)[O-])o2)cc1 | -0.386
CCCC(=O)Nc1cc(C)c(NC(=O)c2ccccn2)cn1 | 12.5
CCOc1ccc(S(=O)(=O)NCc2ccncc2)cc1NC(=O)c1ccccc1 | -16.5
CN(C)S(=O)(=O)c1cccc(NC(=O)CN2C(=O)NC(CCc3ccccc3)C2=O)c1 (stereo not shown) | 7.11

SMILES | hERG current change (%, negative = inhibition) at 1uM [%]
CCCCc1nc2cc(C(=O)N3CCN(c4cnccn4)CC3)ccc2o1 | 1.87
C=CCOc1ccccc1/C=c1\sc2nc(-c3oc4ccccc4c3C)nn2c1=O | -3.41
Cl.N=c1ccn(CC(=O)NC(N)=O)c2ccccc12 | 2.02
Cc1cccc(Nc2ccncc2S(N)(=O)=O)c1 | 8.74
O=C(CCCSc1ccccc1)Nc1nc(-c2ccco2)c(-c2ccco2)s1 | 5.77
COc1cc2c(cc1OC)-c1c(OC)c(OC)cc3ccnc(c13)C2=O | 3.86
COc1ccc(/C(O)=C2/C(=O)C(=O)N(CC3CCCO3)C2c2cccc(OC)c2)cc1 (stereo not shown) | 13.8
CC1CCN(S(=O)(=O)c2cccc(C(=O)Oc3ccc([N+](=O)[O-])cc3)c2)CC1 | 13.1
CC(C)(C)c1[nH]nc2c1C(c1ccncc1)C(C#N)=C(N)O2 (stereo not shown) | 14
Cc1ccc(-c2nc(CN(C)C3CCOCC3)c(C)o2)s1 | 0.24
O=C(O)c1nccnc1C(=O)Nc1ccccc1-c1ccccc1 | 4.75
CCOC(=O)Cn1ccc(NC(=O)c2ccc3c(c2)OCO3)n1 | 13.5
O=C(O)CSCC(=O)N1CCN(c2ncnc3scc(-c4ccccc4)c23)CC1 | 13.6
O=C(CCN1C(=O)c2ccncc2C1=O)Nc1ccc2c(c1)OCCO2 | 3.29
CC(=O)Nc1ccc(S(=O)(=O)NCCC(=O)N2CCc3ccccc32)cc1 | 12.1
NCC(c1ccccc1)c1c[nH]c2ccccc12 (stereo not shown) | 15.5
COc1ccc(CN(Cc2nc3ccccc3c(=O)[nH]2)C(=O)NC2CCCCC2)cc1 | 6.95
Cc1cc(=O)nc2c3ccccc3n(C(C)C(=O)NCCC(C)C)n12 (stereo not shown) | 14.9
CC1(C)CC2CC(C)(CN2C(=S)Nc2ccccc2F)C1 (stereo not shown) | 11.2
COCCCNC(=O)c1ccc2c(=O)n(Cc3ccc(Cl)cc3)c(=S)[nH]c2c1 | 19.7
O=C(CSc1nnc(CNC(=O)c2ccco2)o1)NC1CCCC1 | 7.3
Cc1cc(C)nc(NS(=O)(=O)c2ccc(NC(=O)c3ccccc3C)cc2)n1 | 15.4

SMILES | hERG current change (%, negative = inhibition) at 1uM [%]
Cc1ccc(C(=O)NCC(=O)Nc2cccc(C(F)(F)F)c2)cc1 | 14.1
CSc1ccc(CN(C)C(=O)CNC(=O)c2sc3ccccc3c2Cl)cc1 | 13.2
CCN(CCCNC(=O)CC(C(=O)N1CCc2ccccc21)n1ccnc1)c1ccccc1 (stereo not shown) | -12
Cc1occc1C(=O)N1CCCC(N2CCN(c3ccccc3F)CC2)C1 (stereo not shown) | 2.63
O=C(NCCc1cccs1)C1CC(c2ccc([N+](=O)[O-])cc2)=NO1 (stereo not shown) | -20.3
Cc1[nH]c(=O)c(C(=O)c2cc(Cl)ccc2O)cc1C(=O)O | 4.98
Cc1ccc(NC(=O)C2CC(=O)Nc3nc4ccccc4n32)c(C)c1 (stereo not shown) | 6.22
Cc1ccc(COc2ccccc2C(=S)N2CCCC2)cc1 | 16.3
CCc1ccc(-c2nc(CS(=O)CC(=O)NCc3cccnc3)c(C)o2)cc1 (stereo not shown) | 2.28
Cc1ccc(N2C(=O)NC(=O)C(CCc3ccccn3)(Cc3ccc(F)cc3)C2=O)cc1 (stereo not shown) | 13.6
C=CCC1Cc2c(cccc2[N+](=O)[O-])C(CC=C)N1 (stereo not shown) | 0.936
COc1cccc(-n2c(SCC(=O)NCC3CCCO3)nc3c(c2=O)SCC3)c1 (stereo not shown) | 13.6
COC(=O)CSc1nnc(COc2ccc([N+](=O)[O-])cc2)n1C | -9.79
Cn1c(=S)n(/N=C/c2ccc3c(c2)OCO3)c2ccccc21 | 11.5
CN(C)c1ccc(-n2cccc2/C=N/n2cnnc2)cc1 | 12.6
CC(C)(C)OC(=O)N1Cc2ccccc2C[C@H]1C(=O)O | 13.6
Cc1ccc(C(=O)NNC(=O)C2CSC3(C)CCC(=O)N23)cc1 (stereo not shown) | 15.7
O=C(NC1=NCCS1)C12CC3CC(CC(C3)C1)C2 | 12.5
CCC1CCCCN1C(=O)CCC(=O)Nc1nnc(C(F)(F)F)s1 (stereo not shown) | 14.5
Cc1ccc(CN(c2ccc(C(=O)N3CCOCC3)cc2)S(C)(=O)=O)cc1 | 8.04
COC(=O)c1ccc(/C=C(\C#N)c2nc3ccccc3s2)cc1 | 9.32
COc1ccc(N2CCCC2)c(NC(=O)c2ccc([N+](=O)[O-])o2)c1 | 11.3

SMILES | hERG current change (%, negative = inhibition) at 1uM [%]
CCOC(=O)c1cnc2c(c(C)nn2C)c1Oc1ccc(Cl)cc1 | 16.7
CCOCC(=O)Nc1nnc(COc2ccc(Cl)cc2)s1 | 2.61
Cc1c(CCC(=O)NCCCN2CCCC2=O)c(=O)oc2c(C)c(O)ccc12 | 11.6
CCC(C)(C)NC(=O)C(c1ccc(OC)cc1)N(CCOC)C(=O)CCC(=O)Nc1nccs1 (stereo not shown) | 8.8
COC(CNC(=O)c1ccc(CS(=O)(=O)c2ccc(Br)cc2)o1)OC | 10.1
CN(Cc1ccc(F)cc1)C(=O)c1cccc(S(=O)(=O)N2CCN(c3ccc(F)cc3)CC2)c1 | -9.89
CCC(NC(=O)CCc1nnc(-c2cc(C)on2)o1)C12CC3CC(CC(C3)C1)C2 (stereo not shown) | 11.2
CSc1cnc2c(=O)[nH]c(=O)n(C)c2n1 | 7.35
CC1(c2nnc(-c3ccc(Cl)cc3)o2)CC(c2ccc(Cl)cc2)=NO1 (stereo not shown) | 15.5
Cc1cc(C(=O)N(C)CC(=O)Nc2ccc(F)c(F)c2F)no1 | 16.8
Cc1csc(C(C#N)C(=O)c2ccc(S(=O)(=O)N3CCCC3)cc2)n1 (stereo not shown) | 12.2
Fc1cccc(F)c1/C=N/Nc1ccccn1 | 16.5
N#CCCN(Cc1cccs1)C(=O)Nc1ccccc1 | 7.86
S=C(NCc1cccs1)Nc1ccccc1Cl | 9.28
O=C(N/N=C\C=C\c1ccco1)C1COc2ccccc2O1 (stereo not shown) | 11.3
COc1ccc(CNC(=O)c2ccc(S(=O)(=O)NCc3ccco3)cc2)cc1 | 9.81
COc1cccc(CNC(=O)[C@H](CCSC)NC(=O)N2CCn3c2nc2ccccc23)c1 | 12.6
Cc1ccccc1NC(=O)Cc1nc(CCl)cs1 | 10.6
O=C(/C=C/c1cccs1)Nc1ccncc1 | 10.5
COc1ccc(OC)c(-c2cc(C(=O)Nc3ccc(F)cc3F)no2)c1 | 10.9
C#CCOC(=O)C[N+](C)(C)C/C=C/c1ccccc1.[Cl-] | 10
COc1cc(C2C(C#N)=C(N)OC3=C2C(=O)CC(C)(C)C3)ccc1OCCN1CCOCC1 (stereo not shown) | 14.9
